Results reported in PMC4336329 (PLoS ONE, 2015).
The whole screen tested about 310,000 compounds, of which about 14,000 (4.5%) showed an effect of 50% or more. The effect is printed as a negative number. Some of the results follow.
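Also: peak tail current of the secondary pulse compared with the same well before compound.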

Each compound was assayed against human ether-à-go-go-related gene (hERG) potassium channel (human, UniProt Q12809) (assay: primary screen, population patch clamp on CHO cells stably expressing hERG).
human ether-à-go-go-related gene (hERG) potassium channel, sequence (Q12809 whole entry, looked up): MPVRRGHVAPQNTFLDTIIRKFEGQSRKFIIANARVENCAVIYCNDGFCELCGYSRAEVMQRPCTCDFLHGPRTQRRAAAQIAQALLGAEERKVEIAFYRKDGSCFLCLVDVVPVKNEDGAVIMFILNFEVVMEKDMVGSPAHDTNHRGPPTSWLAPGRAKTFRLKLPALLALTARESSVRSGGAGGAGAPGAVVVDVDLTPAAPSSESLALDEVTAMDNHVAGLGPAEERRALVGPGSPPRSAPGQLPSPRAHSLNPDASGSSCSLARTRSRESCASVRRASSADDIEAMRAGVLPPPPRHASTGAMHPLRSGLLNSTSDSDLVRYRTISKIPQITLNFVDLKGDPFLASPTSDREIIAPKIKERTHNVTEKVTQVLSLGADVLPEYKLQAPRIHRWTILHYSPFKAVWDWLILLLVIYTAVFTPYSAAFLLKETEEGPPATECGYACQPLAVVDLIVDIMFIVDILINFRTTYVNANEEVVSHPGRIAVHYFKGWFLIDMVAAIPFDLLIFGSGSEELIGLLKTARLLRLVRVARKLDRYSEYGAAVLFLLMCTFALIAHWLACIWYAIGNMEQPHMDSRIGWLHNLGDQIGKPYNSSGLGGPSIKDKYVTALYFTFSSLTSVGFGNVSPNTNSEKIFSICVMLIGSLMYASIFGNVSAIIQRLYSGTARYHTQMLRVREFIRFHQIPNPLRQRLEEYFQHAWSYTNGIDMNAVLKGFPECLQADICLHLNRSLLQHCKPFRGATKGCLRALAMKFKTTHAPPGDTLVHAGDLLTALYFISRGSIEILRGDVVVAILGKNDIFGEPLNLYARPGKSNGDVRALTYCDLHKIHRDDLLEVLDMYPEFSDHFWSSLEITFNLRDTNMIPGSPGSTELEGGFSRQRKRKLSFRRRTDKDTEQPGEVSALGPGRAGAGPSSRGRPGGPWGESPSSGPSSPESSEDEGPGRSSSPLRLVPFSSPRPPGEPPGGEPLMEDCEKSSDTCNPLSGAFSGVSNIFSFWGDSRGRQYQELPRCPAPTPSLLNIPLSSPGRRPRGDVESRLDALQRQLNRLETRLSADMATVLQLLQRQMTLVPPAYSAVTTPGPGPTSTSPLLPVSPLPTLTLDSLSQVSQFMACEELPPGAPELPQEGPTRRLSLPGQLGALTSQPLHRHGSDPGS
CCCS(=O)(=O)NCCc1cc2cc(C)c(C)cc2[nH]c1=O was tested, and the “hERG current change (%, negative = inhibition) at 10uM” value was -7.18%.
In the case of CNC(C)C#Cc1ccc2sc3cccc(OC)c3c(=O)c2c1 (centres unmarked), the “hERG current change (%, negative = inhibition) at 10uM” value was -3.61%.
With CCOCCc1nnc(NC(=O)c2cccc(F)c2)s1 the “hERG current change (%, negative = inhibition) at 10uM” value was 0.0842%.
CC(C)(C)CC(=O)Nc1cc2c3c(c1)CCN3C(=O)CC2 was tested, and the “hERG current change (%, negative = inhibition) at 10uM” value was 12.6%.
For Cc1cc(C)nc(NS(=O)(=O)c2ccccc2)n1, the “hERG current change (%, negative = inhibition) at 10uM” value was 3.77%.
With O=S(=O)(N/N=C1\CCCc2ccccc21)c1ccccc1 the “hERG current change (%, negative = inhibition) at 10uM” value was -7.38%.
CCCc1nnc(NC(=O)CCC(=O)N2CCN(c3ccccn3)CC2)s1 was tested, and the “hERG current change (%, negative = inhibition) at 10uM” value was -19.2%.
For CCCCCCOC(=O)C1=C(C)NC(=O)NC1c1ccc2c(c1)OCO2 (centres unmarked), the “hERG current change (%, negative = inhibition) at 10uM” value was -13.1%.
In the case of COc1ccc(-c2coc3cc(OC4OC(CO)C(O)C(O)C4O)cc(O)c3c2=O)cc1 (centres unmarked), the “hERG current change (%, negative = inhibition) at 10uM” value was 2.58%.
Cl.c1ccc2c(c1)oc1c(NCCCN3CCOCC3)ncnc12 was tested, and the “hERG current change (%, negative = inhibition) at 10uM” value was -22.4%.
CC(C)Oc1cc(NC(=O)CSCC(=O)Nc2cccc(C(F)(F)F)c2)c(Cl)cc1Cl was tested, and the “hERG current change (%, negative = inhibition) at 10uM” value was 14.5%.
With Cc1c(C(=O)Nc2ccccc2C(=O)N2CCCC2)cccc1[N+](=O)[O-] the “hERG current change (%, negative = inhibition) at 10uM” value was 9.76%.
For O=C(OCC(=O)N1CCCC1)c1c2c(nc3ccccc13)CCCCC2, the “hERG current change (%, negative = inhibition) at 10uM” value was 11.2%.
For Cc1ccccc1OCCC(=O)NCCc1ccc(S(N)(=O)=O)cc1, the “hERG current change (%, negative = inhibition) at 10uM” value was 11.1%.
With CCOC(=O)c1sc(=S)n(-c2ccccc2Cl)c1C the “hERG current change (%, negative = inhibition) at 10uM” value was -13.8%.
O=c1cc(CN2CCN(Cc3ccc(F)cc3)C(CCO)C2)[nH]c2ccccc12 (centres unmarked) was tested, and the “hERG current change (%, negative = inhibition) at 10uM” value was -61.2%.
With CCOc1c2ccccc2nn1CCOC the “hERG current change (%, negative = inhibition) at 10uM” value was 5.42%.
In the case of COc1ccc(CCNC/C=C/c2ccccc2)cc1.Cl, the “hERG current change (%, negative = inhibition) at 10uM” value was -51.4%.
For COC(=O)CNC(=O)C(Cc1ccccc1)NS(=O)(=O)c1ccc2c(c1)c(=O)n(C)c(=O)n2C (centres unmarked), the “hERG current change (%, negative = inhibition) at 10uM” value was 11.6%.
With NC(=O)CS(=O)(=O)c1ccc(Cl)cc1 the “hERG current change (%, negative = inhibition) at 10uM” value was 24.7%.
In the case of Cc1ccc(N(CC(=O)NCc2ccco2)C(=O)CCC(=O)Nc2ccccn2)c(C)c1, the “hERG current change (%, negative = inhibition) at 10uM” value was -11.9%.
For Cc1cc(O)ccc1N/C=C1\CCCC1=O, the “hERG current change (%, negative = inhibition) at 10uM” value was 3.69%.
For Cc1cccc(NC(=O)CNCC(=O)Nc2cccc(C)c2C)c1C.Cl, the “hERG current change (%, negative = inhibition) at 10uM” value was -7.02%.
In the case of COc1ccc2[nH]cc(CCNC(=O)C3CCCNC3=O)c2c1 (centres unmarked), the “hERG current change (%, negative = inhibition) at 10uM” value was -7.86%.
In the case of c1ccc(CNc2nc(N3CCOCC3)nc(N3CCOCC3)n2)cc1, the “hERG current change (%, negative = inhibition) at 10uM” value was -10%.
For CN1CCc2c(sc3nc(SCC(=O)N4CCOCC4)n(-c4ccc(Cl)cc4)c(=O)c23)C1, the “hERG current change (%, negative = inhibition) at 10uM” value was 8.76%.
